# Measured values from the supplement of paper PMC10681739.
# ± gives the standard deviation of the averaged measurements. The full ranking holds about 4,100 sequences; the median of “arbitrary fluorescence units” is about 780, and the highest 2% start at about 22,000. The list shows a part of the results.
# Target: T1, ETS1 (UniProt P14921)
# T1 sequence: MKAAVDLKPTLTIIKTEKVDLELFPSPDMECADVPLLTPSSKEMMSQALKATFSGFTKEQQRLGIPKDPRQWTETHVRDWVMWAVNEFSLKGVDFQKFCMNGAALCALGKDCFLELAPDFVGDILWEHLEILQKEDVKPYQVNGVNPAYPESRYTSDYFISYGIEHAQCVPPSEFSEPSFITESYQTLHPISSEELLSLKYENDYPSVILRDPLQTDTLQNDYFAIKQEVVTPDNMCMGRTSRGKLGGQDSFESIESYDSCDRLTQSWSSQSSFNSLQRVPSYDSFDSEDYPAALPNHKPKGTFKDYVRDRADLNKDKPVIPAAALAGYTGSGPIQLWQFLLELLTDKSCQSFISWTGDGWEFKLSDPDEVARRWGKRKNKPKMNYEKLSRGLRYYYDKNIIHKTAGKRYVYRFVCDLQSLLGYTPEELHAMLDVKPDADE
# Assay: ETS1 binding intensity (PBM fluorescence), ETS1 alone (arbitrary fluorescence units); higher = stronger binding
# Settings: ETS1 concentration 1 nM; RUNX1 concentration 0 nM
# Procedure, shortened: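 Recombinant full-length human ETS1 was applied at 1 nM, without RUNX1, to double-stranded Agilent 4 × 180k arrays of 36-bp genomic probes carrying a mutated RUNX1 partner site, following standard PBM protocols. Detection used an anti-ETS1 antibody (Cell Signaling Technology 14069) and an Alexa488-conjugated secondary antibody, with scanning on a GenePix 4400A. Each sequence was printed as four replicate spots. Binding level is the spot fluorescence intensity, summarised across replicates and not normalised.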
row,Sequence,ETS1 binding intensity
1,TGAACTGTGAGCGGGGCACTCTGGGAGCGGAAAAGC,338
2,ATGTTCTTTTTGGTATCGCTTCCTGTGTCCTAGCAC,3120
3,AACCCGAAACCCCACGGACCAGCCGGAAGTCTTGAT,1310
4,TAAAGAGGAAGCGGCAGCCGCGCCTGCGCCTACAGT,849
5,CCCAGCAGAATCCGCAGCCTTCCTCCCCCACCCCTC,391
6,GTCGCCCCCACTGCAAGTATTTCCGCTTCCCTCCGC,3490
7,GTCTCAACGTCAAGGAGGTGTTACTTCCTCTTTTAC,982
8,AGAAGGCGCCGGAAGTGGTCCCTCAGAGGCGGGGTG,11600
9,CGGTTCCGGCGCCTGAAGTTTTAGCTTCGGTGGCGG,3620
10,TTACCTTCCTGCTGCCACCAAAGCACCAAAGCACCA,2700
11,AAACATCATAGGAAGTGGATTTTGGGGTGAGAGACA,1170 ± 210
12,AGCGCCACCCCAGTGATGCAAGTCGGAAGTTGTAGT,387
13,GAGGGAAGTCCTCGGGCGTCTCCTAGTGGCGGCGGG,358
14,GAAGCTCTTGTAGTTCCTGGCGGCATCCTGTCCCTC,955 ± 11
15,TAAGGCAAGCACCTCCTCTCAAGACCCTTTCCGGCC,602
16,CCTTGTTCACATCCTTGCACTCTGAGGGGACGGGAG,1120
17,CAGGTCCCCTCACAAGACTGAGATTTCCGCTCTGAT,1510
18,TGGGGTTTCCTGGGGAGAAACTTAGCCCTACCTCAC,3060
19,CCGCTGCAGCTGCGCGCTACGTCACTACGTCCGGCG,402
20,GTGCCTCACCGCTTCCGGCGCTGCGCGATGACGTCA,15700
21,CTCCCGGGCCGAATCCGCGCGTTTCCGGCGCGCTCC,4360
22,AGTGGATTAGTCGTTGTTGCCAGAGGATGTGAGTTG,425
23,CTGAGGAAATTGGCTCCACGATAAAGTGCTTTGGCC,517
24,GAGGGGTGGGCCCCAGGCGCCGGACGTGACGTAAGC,541
25,TCAAGAAAACAGGAAACTCTCAAATCCAAGTTCTGA,3280

row,Sequence,ETS1 binding intensity
1,AACATTACGGAAGTTTCTCTACCCATGAGGTGTCTC,1250
2,TTGCTCGGCTTCCTGGAGCTGGGGTCCGTGTGGGCT,1420
3,CTAGGGAGAGGATGTGAGTTTGTCTCTGGGGGTGGT,725
4,ACAGGCAGCTTCGGCCGCCCGGCTTCCTCTCCCGCC,382
5,CCAGTACCCCACTTCCTGACCAAACCCCAAAGGTCA,6550
6,CCCTTCCTGCCCCCATGGCTCCCCTGACGTTTTTCG,6690
7,GGCATCCCCTTACGGCCATCACTTCCTATGCCCTCA,1460
8,GCTGTAGGCGGTGCAGGAGGGATCCGGAAGAGACGA,425
9,TGAAGGGTGCTTGCCGCCTCCCCTTCCTTCCCAGTC,299
10,CCCCGGCAGAAACAGCACCCCACTTCCCATAGCCAC,508
11,TAATGGGGTGACATCAGCAAGGCCAAACAGGAAGCT,763
12,CCCTGGACGGGAAGCGGCGGCCAGATCCGCTAGCCC,1210
13,GGCAACCCAAGGAAGTATCTCTGAAACTACACAACA,556
14,AAGCACCTCATCGGCAGCTCATGCACTTCCGGCGCA,5760
15,CTGGGGTTGGGCTGTGTAGGTGCGGATTTCCTGGCT,495
16,CAGGCCCTAGTCCACACCCTTCCTGGGGAAGAGATC,337
17,CAACAAGAGGAAATCAGAAACACTGAAGCTACAGCT,936
18,CATTGTAGGCGCTGTAGTCCGGCCGGAACCTGTTTG,451
19,CCTGCAGCTGCAGCGGCACGCGCCGGAAGCCGGGCT,859
20,CACCCTGGCCCCTCAGCCCCAGGAAAACATTCCTCA,408
21,CCCTACACCCCACGATCCCCCGCGCCGTTCCGGAGG,372
22,GTGGCTGTCGTTGAACTGACTCTCGGGTTTCCGCTC,606
23,GCTTGTCTTCCGGTTTCGTCGCCGCCGTAGGCGCAC,16700
24,AATGAGCCCCAGAACCCTTTTCCTTCCGGCCTGTGC,1520
25,AACCCCACTTCGGTGAGGCGGAAGCCTAGTGCCGCC,405

row,Sequence,ETS1 binding intensity
1,GAGAGAGTTCCGCGTAGGGGTCGCCGCGAGTCGCAA,460
2,AAAGGGCCTGTGATAACAAAGCAATATCCTGTTGAA,1350
3,CCAGGGCCGGAAGTGCTGGTGGTGCTTTCCATCATG,14500
4,AACACCACTTCCTACTGTGAAATCACACTGTATTTG,4920
5,AGGCTTCCTGTTTTATCTCGTGTGTCTGGTGCACCA,17300
6,TGTGACAACCCCAGCCCCAAAACAAAGAGGAAACAC,470
7,GCACTCGGATGTTGGCCGTAGTTGGGGTTATAGTTG,615
8,CTAGGAAGTGTCTGTAGGCGCAGCTGAGGGTCCGGG,379
9,TGATTGCGATTTCGGTCGCTCTCCCGTGTTTCCCGG,311
10,CTGCAGATGCATTTCCTTTTTGTGATAGCAAGCGTG,3390
11,CCCTCCGCGCCCAGCCCTGCCACTCTCGGAAATGGG,420
12,TCTGTCACCTCATCCAAGTGTATTTTCCTGACAGAG,443
13,TTGTACTCTGGGGTTTCATTTCCTGCCCGTAAATGC,6450
14,ACGCAAACTACACCAGCCACGGACAGGCAGGAAGAG,479
15,CTCATGGGAAATGTAGTTTCTAAATCGCGGGCGCCC,363
16,CAGGCAGATCAGACAACAGAAGCGGAAGAGGCGGGG,834
17,GCCACCTTACGACAGCTGTACAGAGCTTCCTTTAGC,390
18,TTTCTGATTGTAGTTTCAAATTATTTCCTGTGTTGG,1770
19,GATTAAGAGGAAGTGTGTGTGATTATTAACGCTGGA,1580
20,GGCGGGGCATCCGTGTCCTTACGGTGCTGGGCAGCA,1020
21,TGGGCAAGATATCCTGGAAGTGCTTAAAAAAAATTA,1020
22,GACATCTTCCGGTTGCTACAGGTTACGGCGGCTGCT,12800
23,ACAAGAGGAAGTGAGTCTACCCATGATGCGCTCACA,2560
24,CTGCCAGGAAGGGTTCTGGTTTAAGGTCTCCTCTTA,424
25,GGGGCACCAGACAAACCATGCCCTTTGTCTTCCTGC,381

row,Sequence,ETS1 binding intensity
1,GGATTCCGGTTAGCACGTCGCGTTCTGCCGTAGCAG,3440
2,CGTTATTTCCGGGGCTGGGTTAACGCAGCGGGTCCG,14500
3,TTATGCCTCAGGATGAACGAACCCCAAACACCCAGG,322
4,CAGCCGTCATCATGGTGAAGGAGCAGTTCCGGGAGA,492
5,GGCGCCTCTTTCCGCCCCCGCTCACAATCGAGCGCA,1840
6,CTTGGCAGTTCCGTCCACTTCAGCTGCAGCGTCCCT,972
7,GTAAGATTCGGGGTTGAGCTTCCGTTTTACACTTGG,1390
8,TACTTCTTCCTGGCAGAGACCGGGAGTGCAGTCCGC,2410
9,GGGTTCTCGCAGCAACACGTACCGGGAAGCGTTTGG,310
10,TCGTGCAACTTCCCCAAATGTTGGAAGCTCGACTGC,847 ± 69
11,AGGGCGCCGCTTCCGGGAGCCCCCAAGCGGCCTCCG,9050
12,AACACTATTTCCTTTCTTGCTGCTCACATTTTAACA,4990
13,GGCCTCAGGAAACTTAACAGTTTTGGCAGAAGGTGA,393
14,AGCACCCCACATCCTGCACCCCAGAACCCAGATCCC,5960
15,ACTGCCGAAGCCCAGGGGCCCGAGAAGGAAATCGCT,367
16,GCGGACAACGAGCCTCCTGGGTGCCGGACGCAGATG,371
17,GGTGGAGGCGCTTGGCAGGGAGGAAGGAGGGTGCCG,498
18,TGGTTCCGCCCTCGGTGCCTGCAGGGGACAGCGGAG,2520
19,CAAATACAGTGTGATTTCACAGTAGGAAGTGGTGTT,387
20,TCCTCTCCTTTCCGCGAGACCTTGCGCGCTTATCCA,497
21,CTTTCTGTCGAGGTCAGGTTTCCTCTCCTTTATGAA,437
22,GACAAAGCAAGCGCCAGGCAGATCCCGGAAGCCGCC,549
23,AAGGTCGAGGTCTCGGCTTCCCCGGAACTTTTTGCT,295
24,GCGGAGGCGGAAGTCGTGCTGCTGCTGAGCACGGCT,5100
25,TGCCTCTGAACCTCGCTCTCGCGAGTTTCCGTAGCC,363

row,Sequence,ETS1 binding intensity
1,CAGCCCTCTTCCTGCCTGTCCGTGGCTGGTGAGGTT,5690
2,TTTACGGCGAGAGTCAAGTTCCCACATCCTGTTGAA,2640
3,ATGACTCCAGGAAGATCCTCCTGTGAGCACTGCCCC,369
4,CCAACGACAGCTCGGCAGGCGCCACAGGAAGGGCCC,340
5,ATTTGCTGCGACCCTCAGGCGCTATCCGCTGCCGGG,296
6,GCCATGGCCACTTCCTGCTTGTAACGACAGCCCAGA,21300
7,TGAGGTGCTAAAGCACCAAGCACTTCCTGCTGTTAG,3380
8,TTGACCCCAAAGGAAGGGCAGATGGCAGGAAACAGG,488
9,CCCGCCGGAAGGACGCGTCTGCGTCTCTTCGGCGAG,2680
10,CAGAGGGTTATCCACCAACGGAAGCTCAATTTCAAC,642
11,ACCTGCACTTCCTCCTCCCTAGATCGCACCCTTCTC,5560
12,TCATGTACGGGAAGCCCAGCTCCCTCAGCGCGCCCA,363
13,TCAGCTGGGGTGGGAGGATCTCCTATCAGGATGGCT,525
14,CCGTGGGCGTTTAAAAGGCCCCGGATGTTCAGGGGG,1170
15,GGGTCGCGGCCTTCCGGCGAACGCGGCTACCGTGGA,2870
16,GCCCCTCTGCAGTCGCAGCCCCGCCGGAAGTGTGGC,1370
17,TACTCTAAAGCACTTCAAACCTCCACTTCCTGCCCC,2240
18,GTGAGGTAGGGCTAAGTTTCTCCCCAGGAAACCCCA,436
19,AGGAGAACTTCCGCCCTTACTATATTAACGCCGGTA,15300
20,GGAGGGCTTCCTGCCCACCTCCACCTACAGCAGCTG,5400
21,AGCTTTTCTGAGAGCGCGGGCAGGATGTGACCTCCC,675
22,TTAAAATCCACCTGAGACTCCATTTCCCGGCGTGCT,501
23,GGGCAGGAAGGAAGAGGGCTCCTCCCCCCAAGCTCT,1030
24,CAGTGAGTTGAGGGTTGGTTTCCTCTAGACTCTCGT,719
25,TAAATCGGAAACTCGCCGCTCAGCCTGCAGCCGCCG,582
